Laboratory results taken from article PMC4336329 (PLoS ONE, 2015).
Hit rate of the full screen: of about 310,000 compounds, about 14,000 (4.5%) showed an effect of 50% or more. The effect is printed as a negative number. Some of the results follow.

molecular target: human ether-à-go-go-related gene (hERG) potassium channel (human, UniProt Q12809); experiment: primary screen, population patch clamp on CHO cells stably expressing hERG
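Note: peak tail current of the secondary pulse compared with the same well before compound.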

human ether-à-go-go-related gene (hERG) potassium channel, sequence (Q12809 whole entry, looked up): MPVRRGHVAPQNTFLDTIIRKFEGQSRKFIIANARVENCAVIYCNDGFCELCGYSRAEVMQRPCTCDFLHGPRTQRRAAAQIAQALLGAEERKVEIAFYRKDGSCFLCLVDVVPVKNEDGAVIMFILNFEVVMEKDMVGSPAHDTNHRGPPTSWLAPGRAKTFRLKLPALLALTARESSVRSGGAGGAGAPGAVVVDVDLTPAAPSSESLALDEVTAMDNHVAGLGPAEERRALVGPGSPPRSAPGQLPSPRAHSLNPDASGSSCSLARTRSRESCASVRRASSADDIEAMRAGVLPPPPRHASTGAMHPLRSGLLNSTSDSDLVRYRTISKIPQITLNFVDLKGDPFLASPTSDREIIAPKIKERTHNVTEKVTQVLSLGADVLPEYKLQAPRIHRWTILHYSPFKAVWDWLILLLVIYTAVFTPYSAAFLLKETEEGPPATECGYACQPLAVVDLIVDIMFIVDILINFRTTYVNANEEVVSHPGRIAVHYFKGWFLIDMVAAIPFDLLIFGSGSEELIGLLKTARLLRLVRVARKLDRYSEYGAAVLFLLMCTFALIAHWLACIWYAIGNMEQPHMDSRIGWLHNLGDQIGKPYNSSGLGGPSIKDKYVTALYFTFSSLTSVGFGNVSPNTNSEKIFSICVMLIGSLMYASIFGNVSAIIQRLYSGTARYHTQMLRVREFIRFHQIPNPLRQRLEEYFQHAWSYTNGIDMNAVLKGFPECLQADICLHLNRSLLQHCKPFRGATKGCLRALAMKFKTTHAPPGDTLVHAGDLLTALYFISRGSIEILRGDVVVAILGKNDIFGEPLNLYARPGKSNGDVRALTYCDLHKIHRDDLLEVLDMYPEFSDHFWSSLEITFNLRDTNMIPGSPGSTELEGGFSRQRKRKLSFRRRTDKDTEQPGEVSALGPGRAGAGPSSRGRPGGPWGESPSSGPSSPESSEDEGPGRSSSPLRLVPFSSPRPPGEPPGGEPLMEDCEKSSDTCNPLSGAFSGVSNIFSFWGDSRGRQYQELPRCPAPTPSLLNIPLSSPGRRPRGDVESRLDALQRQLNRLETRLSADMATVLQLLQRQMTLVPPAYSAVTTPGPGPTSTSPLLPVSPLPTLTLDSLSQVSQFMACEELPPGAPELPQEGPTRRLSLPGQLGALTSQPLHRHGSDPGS

| Compound | hERG current change (%, negative = inhibition) at 10uM |
| --- | --- |
| O=C(CCN1CCN(C/C=C/c2ccccc2)CC1)Nc1ccccc1F.O=C(O)C(=O)O | -75.1% |
| COc1ccccc1N(CC(=O)Nc1ccc2c(c1)OCCO2)S(=O)(=O)c1ccc(C)cc1 | 5.68% |
| CN(c1ccccc1)C(c1ccc(F)cc1)c1nnnn1CC1CCCO1.Cl (stereo not shown) | -14.1% |
| COCCCNC(=O)C1CCC(CNS(=O)(=O)c2ccc3c(c2)CC(C)N3C(=O)C2CC2)CC1 (stereo not shown) | -5.73% |
| CC1=C(C(N)=O)C(c2cccs2)n2nc(-c3cccc(C)c3)nc2N1 (stereo not shown) | -16.7% |
| CN1C(C(=O)Nc2ccc(F)cc2F)=CC(c2ccco2)=NS1(=O)=O | -4.52% |
| CCCCn1c(N)c(N2CCOCC2)c(=O)n(CC(=O)NC(C)c2ccccc2)c1=O (stereo not shown) | 16.3% |
| COc1ccc(-n2c(-c3ccc(C)cc3)nc3ccccc3c2=O)cc1 | -19.2% |
| Cc1ccc(NC(=O)Nc2ccccc2C#N)c(Cl)c1 | 16.2% |
| Cn1c(=O)c2c(nc(NCc3cccnc3)n2Cc2ccc(Cl)cc2)n(C)c1=O | -36.5% |
| Cc1ccc(CN2CCN(Cc3cnc(N4CCOCC4)s3)CC2CCO)cc1 (stereo not shown) | -46.7% |
| S=C(NC1CCCCC1)N(CCc1ccccc1)CCc1ccccc1 | -3.51% |
| O=C(CCN1CCCCC1)NCC1OCCc2ccccc21 (stereo not shown) | -15.5% |
| Fc1cccc(NC(=S)N2CCn3cccc3C2c2cccnc2)c1 (stereo not shown) | 10% |
| CCOC(=O)C(NC(=O)c1ccccc1)(Nc1cc(C)on1)C(F)(F)F (stereo not shown) | 2.6% |
| C(=N\Nc1nc(N2CCOCC2)nc(N2CCOCC2)n1)/c1ccncc1 | 6.37% |
| COC(=O)c1sccc1NC(=O)c1c(C)c(-c2cccc(Cl)c2)nc2ccccc12 | 16.7% |
| O=C(CNC(=O)c1ccccc1F)NCCOc1ccccc1Cl | 12.1% |
| CC(C)N(Cc1nc(-c2ccc(Cl)cc2)no1)C(=O)C12CC3CC(CC(C3)C1)C2 | 10.8% |
| CCOC(=O)CNC(=O)c1cn(CC(C)C)c(=O)c2cc(OC)c(OC)cc12 | -24% |
| COc1ccc(C)cc1NC(=O)C1CCCN(S(=O)(=O)c2ccc3c(c2)CCCN3C(C)=O)C1 (stereo not shown) | -2.38% |
| CCc1cccc(C)c1NC(=O)C1CCCO1 (stereo not shown) | 6.66% |
| CCOC(=O)c1sc(-c2cccc([N+](=O)[O-])c2)cc1N | 27.7% |
| CNC(=S)Nc1sc2c(c1C(=O)OC)CCC2 | 9.71% |
| O=C(NC(=S)Nc1ccc2oc(-c3cccnc3)nc2c1)c1cccc(Cl)c1 | -1.17% |
| CCCNc1nc2c(c(=O)[nH]c(=O)n2C)n1CCc1ccccc1 | 4.04% |
| COC(=O)CC1C(=O)NCCN1C(=S)Nc1ccccc1Cl (stereo not shown) | 13.3% |
| Cc1ccc2[nH]c(=O)c(CN(CCCN(C)C)C(=O)Nc3ccc(Cl)cc3)cc2c1 | -66.1% |

| Compound | hERG current change (%, negative = inhibition) at 10uM |
| --- | --- |
| Cc1ccc(OCC(=O)NNC(=S)NC(=O)C2CCCCC2)c(C)c1 | -0.527% |
| O=C1C(=O)N(c2ccccn2)C(c2cccc([N+](=O)[O-])c2)/C1=C(/O)c1ccc(Br)cc1 (stereo not shown) | 6.29% |
| COc1ccccc1-n1c(-c2cc(-c3ccco3)[nH]n2)n[nH]c1=S | 1.06% |
| COc1ccc(OC)c(NC(=O)c2oc3c(c2C)C(O)CC(C)(C)C3)c1 (stereo not shown) | 5.4% |
| CC(OC(=O)c1ccc2c(=O)n3c(nc2c1)CCCCC3)C(=O)Nc1ccc(F)cc1Cl (stereo not shown) | 15.4% |
| CSc1ccccc1C(=O)NCc1ccc(F)cc1 | 2.61% |
| O=C1NC(=O)C(Cc2c[nH]c3ccccc23)N1 (stereo not shown) | 17% |
| NC(=O)CC(NC(=O)c1ccccc1)c1ccc(NCCc2ccc(Cl)cc2)c([N+](=O)[O-])c1 (stereo not shown) | 1.56% |
| CSc1nsc(SC)c1NC(=O)Nc1ccccc1C | 9.65% |
| Cc1cccc2c(=O)cc(C)n(CC(=O)N3CCOCC3)c12 | 4.76% |
| COc1ccc(NC(=O)c2ccco2)cc1NC(=O)c1c(OC)cccc1OC | 13.8% |
| COc1ccc(C(CNC(=O)c2cc(SC)ccc2Cl)N(C)C)cc1 (stereo not shown) | -13.2% |
| Cc1cc(Br)ccc1NC(=O)CCSc1ccccc1 | 9.06% |
| COC(=O)c1sc(S(=O)(=O)NCc2cccs2)c(C(=O)OC)c1C | -19.1% |
| O=C(Cc1cccc2ccccc12)NNC(=O)Nc1cccc(Cl)c1 | 11.8% |
| O=C(Cc1ccc(Cl)cc1)Nc1ccc2c(c1)C(=O)NC2=O | -23% |
| O=C(c1ccccc1)N(Cc1ccc(F)cc1)Cc1nc2ccccc2c(=O)[nH]1 | -35% |
| O=C(COC(=O)c1cc[n+]([O-])cc1)NCc1ccccc1Cl | -1.49% |
| Cc1ccc(S(=O)(=O)C(CNC(=O)C(C)C)c2cccs2)cc1 (stereo not shown) | 14.7% |
| CC(C(=O)N1CCc2ccccc21)N1CCc2ccccc2C1 (stereo not shown) | -18.9% |
| CCS(=O)(=O)c1ccc2c(c1)NC(=O)C(CCCl)O2 (stereo not shown) | -5.5% |
| CC(C)Cn1c(N)c(C(=O)COC(=O)COc2cccc(C(F)(F)F)c2)c(=O)n(C)c1=O | -50.9% |
| O=c1ccc(-c2ccccc2)nn1Cc1ccc(F)cc1Cl | 19.6% |
| C=CCN(C(=O)CCC(=O)Nc1cc(C)on1)C(C(=O)NC1CCCC1)c1ccc(OC)cc1OC (stereo not shown) | 0.0442% |
| CCCCn1c(NCc2ccncc2)nc2ccccc21 | -48.2% |
| O=C(NCC1CCCO1)/C(=C\c1ccco1)NC(=O)c1ccccc1 (stereo not shown) | 10.3% |
| O=C(Nc1ccon1)C12CC3CC(C1)CC(n1cnc([N+](=O)[O-])n1)(C3)C2 | -50.5% |
